Reference: the BET-seq Pho4 binding data (Le et al. 2018)
This is one part of the list. These are noisy estimates, calculated here from bound and input reads.

What follows are sequences tested against T1, Pho4 (S. cerevisiae) (UniProt P07270) (assay: relative binding free energy (BET-seq); higher = weaker binding). Settings: reference: library average.
T1 sequence: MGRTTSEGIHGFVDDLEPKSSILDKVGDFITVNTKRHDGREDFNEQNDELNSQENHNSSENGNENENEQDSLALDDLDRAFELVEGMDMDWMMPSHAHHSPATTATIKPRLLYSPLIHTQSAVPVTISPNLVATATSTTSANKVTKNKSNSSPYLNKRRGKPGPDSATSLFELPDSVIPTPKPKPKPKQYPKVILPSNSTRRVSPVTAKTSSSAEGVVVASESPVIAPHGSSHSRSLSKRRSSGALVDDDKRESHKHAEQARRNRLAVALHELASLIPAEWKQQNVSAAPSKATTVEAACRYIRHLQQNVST

Relative binding free energy, 0.3 kcal/mol:
GCGTTCACGTGGCGGC
TGGATCACGTGGAAGA
GGTCTCACGTGTTATG
AGGGTCACGTGAGGTT
AGGATCACGTGAGTAG

Relative binding free energy, 0.19 kcal/mol:
CTTTACACGTGTAGGT
AGCGTCACGTGTCTTG
GGATACACGTGTGTTA

Relative binding free energy, 0.28 kcal/mol:
TAAGTCACGTGAGTAT
AGTTTCACGTGGGTTC
TTGTTCACGTGTAGAA
GGTGTCACGTGAATAG

Relative binding free energy, -0.26 kcal/mol:
AGTTGCACGTGTTGCT
AGAAGCACGTGTATTG

Relative binding free energy, -0.06 kcal/mol:
CGTTGCACGTGTATAT
GGGTCCACGTGGGCGA
GATGGCACGTGGTTGA
TAAGGCACGTGTGCAA
TAGGACACGTGTTCTG
GTGAGCACGTGGAGCT

Relative binding free energy, 0.32 kcal/mol:
GGTTTCACGTGGATTC
AGTTACACGTGAGTAT

Relative binding free energy, -0.19 kcal/mol:
CGGGGCACGTGGCTTT
GTTGGCACGTGGGTGG

Relative binding free energy, -0.01 kcal/mol:
CAGGACACGTGGCGTG
TTGTACACGTGGTGCT
TATAGCACGTGTAAGG
AGTGTCACGTGTTTGC
AGAGTCACGTGGGGAC
CTTATCACGTGGTGGG
TTCGGCACGTGTATGA

Relative binding free energy, 0.16 kcal/mol:
CGAATCACGTGTATGG
ATGTTCACGTGTGCTA
GTTATCACGTGTAATG

Relative binding free energy, 0.25 kcal/mol:
GATTTCACGTGTATTG
CTTTTCACGTGGTGTA
ACTGTCACGTGAGGCG

Relative binding free energy, 0.31 kcal/mol:
ATTTTCACGTGTAGAT
GGTTTCACGTGTGGTC
AATTTCACGTGTGTAT

Relative binding free energy, -0.21 kcal/mol:
GTGACCACGTGGGGTA

Relative binding free energy, 0.23 kcal/mol:
GGTTACACGTGTTGAT
GTAGTCACGTGATTTA

Relative binding free energy, 0.21 kcal/mol:
TATTACACGTGTGCGG
TTTATCACGTGATAGC
GTGAGCACGTGTAAAA
AAGTGCACGTGATGCT

Relative binding free energy, -0.12 kcal/mol:
TTAGGCACGTGTCGGA
TAAGGCACGTGGACTG
TTTGGCACGTGTGTCA
TAAGGCACGTGGGAGT

Relative binding free energy, 0.03 kcal/mol:
CGTTGCACGTGTAGGC
TTGTACACGTGGATCG
AATTGCACGTGCTTAG
TTTGTCACGTGCTCAT
TAAAGCACGTGGAGGT
TGAAGCACGTGTGTGT
CATGTCACGTGCGGGA

Relative binding free energy, -0.14 kcal/mol:
TCAGGCACGTGGAATG
TTGCCCACGTGGTGTG
AGTAACACGTGGGGCG
TATGCCACGTGTGCGT

Relative binding free energy, 0.17 kcal/mol:
GGTGTCACGTGTTGCT
GATGTCACGTGAGATG
GAGGCCACGTGATGGG

Relative binding free energy, 0.18 kcal/mol:
CGGTTCACGTGTTATT
TTATTCACGTGCGAGT
CCTTACACGTGTTTTT
TGGGTCACGTGGATGA
AGGGTCACGTGGATTC
GTGTACACGTGTGGCC
AGCGTCACGTGTCGAG
TAGGGCACGTGAAGTA
GGTAGCACGTGAGTCT
GTCTGCACGTGTGGAG

Relative binding free energy, -0.08 kcal/mol:
CGTGGCACGTGTGAGT

Relative binding free energy, 0.24 kcal/mol:
GTTAGCACGTGACGTG
ATGATCACGTGTAAGG
TTAGTCACGTGATGAC
TGGCTCACGTGGTAGC

Relative binding free energy, -0.16 kcal/mol:
CGTATCACGTGGGCGG

Relative binding free energy, -0.13 kcal/mol:
AGCTGCACGTGGTATG

Relative binding free energy, 0.46 kcal/mol:
CGTTTCACGTGATTGC
CTGTTCACGTGAATTT

Relative binding free energy, 0.05 kcal/mol:
CATGTCACGTGGTATG
TTGGGCACGTGGAGTT
ATGTGCACGTGTCTAA
TGGTTCACGTGGCGCT

Relative binding free energy, 0.27 kcal/mol:
GTTCTCACGTGGGGAG
TACGTCACGTGAGGAG
GCTTTCACGTGTGGGC
GGGATCACGTGTCGTG

Relative binding free energy, 0.11 kcal/mol:
CGTGTCACGTGGATTA
ATTGTCACGTGGACGA

Relative binding free energy, -0.24 kcal/mol:
AGCGGCACGTGGGCTG

Relative binding free energy, 0.43 kcal/mol:
GTGTTCACGTGTGATT

Relative binding free energy, 0.4 kcal/mol:
TTGTTCACGTGAGGGA
GGATTCACGTGCGTTA

Relative binding free energy, 0.09 kcal/mol:
GTGAGCACGTGTGAGG
TGCTGCACGTGTTTGG
AGGGTCACGTGCCTGG
TAATCCACGTGTATTG
GGTGCCACGTGTGTAA
ATGGGCACGTGAGTAC
TTCAACACGTGGGGGC
TGAGTCACGTGGGATA

Relative binding free energy, 0.29 kcal/mol:
GTTAGCACGTGAATGT

Relative binding free energy, 0.06 kcal/mol:
TTTACCACGTGTCGGG
TTGGTCACGTGGCGGC
TGGGTCACGTGCGTAT
GTACGCACGTGTGTTT
GGGTGCACGTGACATG
GGGGTCACGTGGGTAG
TTTGCCACGTGTGCTT
TTTGACACGTGTGCAG

Relative binding free energy, 0.38 kcal/mol:
TTTCTCACGTGATATT
GAGTTCACGTGTCATG

Relative binding free energy, 0.15 kcal/mol:
TCTGGCACGTGATTGC
GAGGTCACGTGTCGGC
GTATTCACGTGGGTGT
TGCGGCACGTGATTGT
GTGTCCACGTGAGGGG

Relative binding free energy, 0.2 kcal/mol:
CTTTTCACGTGGGAAT

Relative binding free energy, 0 kcal/mol:
CTTAGCACGTGTGGGC
GTTTGCACGTGGGTTC
GAATGCACGTGTTAGT
TTTAACACGTGGTTTT

Relative binding free energy, -0.02 kcal/mol:
TGGGACACGTGCTTTT
AGGAGCACGTGTGTTT
GGGGGCACGTGACGTT
GAGTGCACGTGGGAAG
TTTGGCACGTGGTAGC
GGGGTCACGTGGGCCA

Relative binding free energy, -0.04 kcal/mol:
CGGGCCACGTGTATGG
GGTCGCACGTGGTGGC
TGAAACACGTGGATGG
GCCCGCACGTGTGGGG

Relative binding free energy, 0.42 kcal/mol:
AGTTACACGTGAAGGT
TTCTTCACGTGAGTGT

Relative binding free energy, 0.12 kcal/mol:
CGGGGCACGTGAGGGC
GCAGTCACGTGGTATG
GTAGTCACGTGGCCTT
GATGACACGTGTCGGT
TTCCGCACGTGAGTTG

Relative binding free energy, -0.09 kcal/mol:
AGTAGCACGTGGGTTC
AGATCCACGTGGTTGT
ATGGCCACGTGGGTAG

Relative binding free energy, -0.1 kcal/mol:
TGTGTCACGTGGGTCA
TTTCGCACGTGGCGGG
TCGTGCACGTGTTGGC
TTATGCACGTGGCTGC

Relative binding free energy, 0.14 kcal/mol:
AGGCACACGTGTGGAT
TAAATCACGTGTATGT
GTTGACACGTGATGTA
GTTAACACGTGTCGTA
TCATTCACGTGATGGT
GTTATCACGTGGTCTT

Relative binding free energy, 0.34 kcal/mol:
GGGTTCACGTGTTCAC
GGGAACACGTGAAGGG

Relative binding free energy, -0.29 kcal/mol:
TCAGGCACGTGGCGGG

Relative binding free energy, -0.15 kcal/mol:
AGTAGCACGTGGGTTT

Relative binding free energy, 0.36 kcal/mol:
TTGTACACGTGAAGGG
TTTTTCACGTGAGGCT
GAGTTCACGTGTAGTA
GTTTTCACGTGGACAT

Relative binding free energy, -0.2 kcal/mol:
GTTGGCACGTGGCTCG
TGATGCACGTGCGGGG

Relative binding free energy, 0.35 kcal/mol:
CGGCTCACGTGAGGGT
AGGGTCACGTGAACGG
TTGAACACGTGAAAGG
TTGATCACGTGAGAGA

Relative binding free energy, -0.18 kcal/mol:
TGGTGCACGTGGCGTA

Relative binding free energy, -0.05 kcal/mol:
TGGGGCACGTGTGAGG
GAGAGCACGTGTCGTG
GAGGCCACGTGGAGTG
CATTGCACGTGTATTG

Relative binding free energy, 0.39 kcal/mol:
ATTTTCACGTGAAAGA
GGTCTCACGTGATGAT

Relative binding free energy, 0.37 kcal/mol:
GATTTCACGTGTTATT

Relative binding free energy, 0.22 kcal/mol:
GTGTGCACGTGACGGG
TATATCACGTGAGGGC
GGTTTCACGTGGCTGT

Relative binding free energy, -0.03 kcal/mol:
TGTGTCACGTGGGAGC
AGTGCCACGTGGATTT
GTTCGCACGTGGAAGT

Relative binding free energy, 0.02 kcal/mol:
GGTGGCACGTGATTTC
TAGGACACGTGGCCGT
AGTAACACGTGGCATT
TCATGCACGTGTGGTT

Relative binding free energy, 0.07 kcal/mol:
GTACACACGTGTTGGT
ATGTCCACGTGGGATA
GTCGTCACGTGGCGGA
GTGATCACGTGGGCAA
AAGAGCACGTGTCGTA
TAAGGCACGTGATGAG
TTTAACACGTGTCGGT

Relative binding free energy, 0.26 kcal/mol:
TGGTTCACGTGAAGCG
AAATGCACGTGTAGAT
TTATTCACGTGCGGTC

Relative binding free energy, 0.04 kcal/mol:
TCGGACACGTGGATGT
TACTTCACGTGGGGGA
GGCTGCACGTGCTTTG
ATTGTCACGTGGGTCG
TTCGGCACGTGTAGGT
AGGGTCACGTGCAGGT
AGAATCACGTGTGTTG
CGGGCCACGTGGTTGC

Relative binding free energy, -0.07 kcal/mol:
GGCGGCACGTGCGGAG
TTGAGCACGTGGACTT
AATCGCACGTGGGTGG
TGGTGCACGTGTATTC
TTAGGCACGTGTCAGA

Relative binding free energy, 0.1 kcal/mol:
AATCGCACGTGATGGG
TGGGTCACGTGGAGAA
TGAATCACGTGTTTTG
TGAGTCACGTGTTAAT
CTGGACACGTGGAAGT

Relative binding free energy, 0.01 kcal/mol:
CAACACACGTGGGGGG
TTTCGCACGTGTAGGT
TGTAACACGTGTCCGG
GTTCTCACGTGCGTGT

Relative binding free energy, 0.08 kcal/mol:
ATTATCACGTGGTTGG
GGTATCACGTGCGTTA
TAGCGCACGTGTGATT
GGTAACACGTGTGTAG
TGAGTCACGTGGCGTT
AAGTACACGTGTTTGA
AGCGGCACGTGATTGG

Relative binding free energy, 0.41 kcal/mol:
TTTTTCACGTGCGAAA

Relative binding free energy, 0.13 kcal/mol:
TGTTGCACGTGATGTT
